# Measurements: the supplement of paper PMC4604168 (melanoma cell lines)
# The list shows a part of the results. Most values come without repeats; read them as rough.
# Tested on: A101D
# Assay: cell count relative to DMSO control; melanoma cells; higher = more viable cells
# Settings: library dose: standard library concentration; 72 h
# 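Also: cells treated in 1,536-well plates, then fixed and DAPI-stained, with nuclei counted from automated high-throughput microscope images.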
row,Structure (SMILES),cell count
1,"O=c1[nH]nc(Sc2ncc([N+](=O)[O-])s2)n1-c1ccc2c(c1)OCCO2 + Cc1nc(Nc2ncc(C(=O)Nc3c(C)cccc3Cl)s2)cc(N2CCN(CCO)CC2)n1 [dasatanib] (first compound 1 µM, partner dose 0.02 µM)",75.2%
2,"O=C(O)c1ccc(-c2c[nH]c3ncc(-c4ccccc4)cc23)cc1C1CCCC1 + O=S(=O)(c1ccccc1)N(CC(F)(F)F)c1ccc(C(O)(C(F)(F)F)C(F)(F)F)cc1 [T0901317] (first compound 0.8 µM, partner dose 7 µM)",79.4%
3,"Cn1cncc1[C@@](N)(c1ccc(Cl)cc1)c1ccc2c(c1)c(-c1cccc(Cl)c1)cc(=O)n2C [tipifarnib] + CN(NC(=O)CC(=O)NN(C)C(=S)c1ccccc1)C(=S)c1ccccc1 [STA4783] (first compound 0.05 µM, partner dose 0.03 µM)",52.8%
4,"O=c1[nH]nc(Sc2ncc([N+](=O)[O-])s2)n1-c1ccc2c(c1)OCCO2 + COc1ccc(-c2ccc3c(N4CCOCC4)nc(N4C[C@@H](C)O[C@@H](C)C4)nc3n2)cc1CO [KU0063794] (first compound 1 µM, partner dose 0.1 µM)",75.1%
5,"Cn1cncc1[C@@](N)(c1ccc(Cl)cc1)c1ccc2c(c1)c(-c1cccc(Cl)c1)cc(=O)n2C [tipifarnib] + CN(C)S(=O)(=O)c1ccc2c(c1)/C(=C/c1cc3c([nH]1)CCCC3)C(=O)N2 [SU6656] (first compound 0.05 µM, partner dose 2 µM)",64.6%
6,"O=C(Nc1cccc(Cl)c1)Nc1ncc(CCNc2ncnc3ccsc23)s1 + O=C(O)c1ccc(-c2c[nH]c3ncc(-c4ccccc4)cc23)cc1C1CCCC1 [GSK650394] (first compound 0.004 µM, partner dose 0.8 µM)",76%
7,"O=c1[nH]nc(Sc2ncc([N+](=O)[O-])s2)n1-c1ccc2c(c1)OCCO2 + C#Cc1cccc(Nc2ncnc3cc(OCCOC)c(OCCOC)cc23)c1 [erlotinib] (first compound 1 µM, partner dose 4 µM)",57.6%
8,"O=c1[nH]nc(Sc2ncc([N+](=O)[O-])s2)n1-c1ccc2c(c1)OCCO2 + C[C@@H](N)c1ccc(C(=O)Nc2ccnc3[nH]ccc23)cc1 [RKI983] (first compound 1 µM, partner dose 2 µM)",65.2%
9,"COc1cc(Nc2ncc(F)c(Nc3ccc4c(n3)NC(=O)C(C)(C)O4)n2)cc(OC)c1OC [Tamatinib] + CC(C)(C)c1cnc(CSc2cnc(NC(=O)C3CCNCC3)s2)o1 [SNS-032] (first compound 2 µM, partner dose 0.05 µM)",64.1%
10,"O=c1[nH]nc(Sc2ncc([N+](=O)[O-])s2)n1-c1ccc2c(c1)OCCO2 + NCC(=O)Nc1ccc(-n2nc(C(F)(F)F)cc2-c2ccc3c(ccc4ccccc43)c2)cc1 [OSU03012] (first compound 1 µM, partner dose 5 µM)",113%
11,"O=c1[nH]nc(Sc2ncc([N+](=O)[O-])s2)n1-c1ccc2c(c1)OCCO2 + CN(NC(=O)CC(=O)NN(C)C(=S)c1ccccc1)C(=S)c1ccccc1 [STA4783] (first compound 1 µM, partner dose 0.03 µM)",50.4%
12,"C[C@@H]1CCN(C(=O)CC#N)C[C@@H]1N(C)c1ncnc2[nH]ccc12 + O=C(Nc1ccccc1)c1cc([N+](=O)[O-])ccc1Cl [GW9662] (first compound 5 µM, partner dose 10 µM)",70.8%
13,"O=c1[nH]nc(Sc2ncc([N+](=O)[O-])s2)n1-c1ccc2c(c1)OCCO2 + NC1(c2ccc(-c3nc4ccn5c(=O)[nH]nc5c4cc3-c3ccccc3)cc2)CCC1 [MK2206] (first compound 1 µM, partner dose 2 µM)",74.1%
14,"C[C@@H]1CCN(C(=O)CC#N)C[C@@H]1N(C)c1ncnc2[nH]ccc12 + O=C(O)c1ccc(-c2c[nH]c3ncc(-c4ccccc4)cc23)cc1C1CCCC1 [GSK650394] (first compound 5 µM, partner dose 0.8 µM)",86.7%
15,"CC1(C)NC(=O)N(c2ccc([N+](=O)[O-])c(C(F)(F)F)c2)C1=O [nilutamide] + O=C(O)c1ccc(-c2c[nH]c3ncc(-c4ccccc4)cc23)cc1C1CCCC1 [GSK650394] (first compound 5 µM, partner dose 0.8 µM)",71.7%
16,"O=c1[nH]nc(Sc2ncc([N+](=O)[O-])s2)n1-c1ccc2c(c1)OCCO2 + O=C(/C=C/c1cccnc1)NCCCCC1CCN(C(=O)c2ccccc2)CC1 [FK866] (first compound 1 µM, partner dose 0.05 µM)",72.7%

row,Structure (SMILES),cell count
1,"O=c1[nH]nc(Sc2ncc([N+](=O)[O-])s2)n1-c1ccc2c(c1)OCCO2 + CC1(C)NC(=O)N(c2ccc([N+](=O)[O-])c(C(F)(F)F)c2)C1=O [nilutamide] (first compound 1 µM, partner dose 5 µM)",105%
2,"O=c1[nH]nc(Sc2ncc([N+](=O)[O-])s2)n1-c1ccc2c(c1)OCCO2 + C=CCn1c(=O)c2cnc(Nc3ccc(N4CCN(C)CC4)cc3)nc2n1-c1cccc(C(C)(C)O)n1 [MK1775] (first compound 1 µM, partner dose 0.1 µM)",61.2%
3,"O=c1[nH]nc(Sc2ncc([N+](=O)[O-])s2)n1-c1ccc2c(c1)OCCO2 + Cn1cncc1[C@@](N)(c1ccc(Cl)cc1)c1ccc2c(c1)c(-c1cccc(Cl)c1)cc(=O)n2C [tipifarnib] (first compound 1 µM, partner dose 0.05 µM)",78.1%
4,"CC1(C)NC(=O)N(c2ccc([N+](=O)[O-])c(C(F)(F)F)c2)C1=O [nilutamide] + C=CCn1c(=O)c2cnc(Nc3ccc(N4CCN(C)CC4)cc3)nc2n1-c1cccc(C(C)(C)O)n1 [MK1775] (first compound 5 µM, partner dose 0.1 µM)",66.9%
5,"COc1cc(Nc2ncc(F)c(Nc3ccc4c(n3)NC(=O)C(C)(C)O4)n2)cc(OC)c1OC [Tamatinib] + C=CCn1c(=O)c2cnc(Nc3ccc(N4CCN(C)CC4)cc3)nc2n1-c1cccc(C(C)(C)O)n1 [MK1775] (first compound 2 µM, partner dose 0.1 µM)",26.8%
6,"COc1cc(Nc2ncc(F)c(Nc3ccc4c(n3)NC(=O)C(C)(C)O4)n2)cc(OC)c1OC [Tamatinib] + O=C(Nc1cccc(Cl)c1)Nc1ncc(CCNc2ncnc3ccsc23)s1 [SNS314] (first compound 2 µM, partner dose 0.004 µM)",37.1%
7,"O=c1[nH]nc(Sc2ncc([N+](=O)[O-])s2)n1-c1ccc2c(c1)OCCO2 + COc1ccc(C2=N[C@@H](c3ccc(Cl)cc3)[C@@H](c3ccc(Cl)cc3)N2C(=O)N2CCNC(=O)C2)c(OC(C)C)c1 [Nutlin-3] (first compound 1 µM, partner dose 0.5 µM)",69.7%
8,"O=C(O)c1ccc(-c2c[nH]c3ncc(-c4ccccc4)cc23)cc1C1CCCC1 + NCC(=O)Nc1ccc(-n2nc(C(F)(F)F)cc2-c2ccc3c(ccc4ccccc43)c2)cc1 [OSU03012] (first compound 0.8 µM, partner dose 5 µM)",74.8%
9,"C[C@@H]1CCN(C(=O)CC#N)C[C@@H]1N(C)c1ncnc2[nH]ccc12 + COc1cc2ncnc(Nc3ccc(Oc4ccccc4)cc3)c2cc1OC [SrcI1] (first compound 5 µM, partner dose 10 µM)",76.8%
10,"COc1cc(Nc2ncc(F)c(Nc3ccc4c(n3)NC(=O)C(C)(C)O4)n2)cc(OC)c1OC [Tamatinib] + NCC(=O)Nc1ccc(-n2nc(C(F)(F)F)cc2-c2ccc3c(ccc4ccccc43)c2)cc1 [OSU03012] (first compound 2 µM, partner dose 5 µM)",17.1%
11,"CC1(C)NC(=O)N(c2ccc([N+](=O)[O-])c(C(F)(F)F)c2)C1=O [nilutamide] + CN(C)S(=O)(=O)c1ccc2c(c1)/C(=C/c1cc3c([nH]1)CCCC3)C(=O)N2 [SU6656] (first compound 5 µM, partner dose 2 µM)",68.5%
12,"COc1cc(Nc2ncc(F)c(Nc3ccc4c(n3)NC(=O)C(C)(C)O4)n2)cc(OC)c1OC [Tamatinib] + CO[C@@H]1[C@H](N(C)C(=O)c2ccccc2)C[C@H]2O[C@]1(C)n1c3ccccc3c3c4c(c5c6ccccc6n2c5c31)C(=O)NC4 [Midostaurin] (first compound 2 µM, partner dose 0.4 µM)",10.6%
13,"O=c1[nH]nc(Sc2ncc([N+](=O)[O-])s2)n1-c1ccc2c(c1)OCCO2 + Nc1nc(F)nc2c1ncn2[C@@H]1O[C@H](CO)[C@@H](O)[C@@H]1O [fludarabine] (first compound 1 µM, partner dose 1 µM)",74.3%
14,"COc1cc(Nc2ncc(F)c(Nc3ccc4c(n3)NC(=O)C(C)(C)O4)n2)cc(OC)c1OC [Tamatinib] + CC1(C)NC(=O)N(c2ccc([N+](=O)[O-])c(C(F)(F)F)c2)C1=O [nilutamide] (first compound 2 µM, partner dose 5 µM)",19.6%
15,"O=c1[nH]nc(Sc2ncc([N+](=O)[O-])s2)n1-c1ccc2c(c1)OCCO2 + CC(=O)O[C@@]12CO[C@@H]1C[C@H](O)[C@@]1(C)C(=O)[C@H](O)C3=C(C)[C@@H](OC(=O)[C@H](O)[C@@H](NC(=O)OC(C)(C)C)c4ccccc4)C[C@@](O)([C@@H](OC(=O)c4ccccc4)[C@H]21)C3(C)C [Docetaxel] (first compound 1 µM, partner dose 0.0005 µM)",39.9%
